The source of these data is paper PMC6919601, “Identification of Plasmodium dipeptidyl aminopeptidase allosteric inhibitors by high throughput screening” (PLoS ONE, 2019).

Structures are written as SMILES. The campaign covered roughly 110,000 compounds. About 230 (0.21%) showed an effect of 50% or more. Some of the results follow.
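Further: 30 min substrate incubation versus DMSO and 10 µM JCP410 controls.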

For the experiment, the target named is DPAP1 (Plasmodium falciparum, UniProt Q8IIJ9). Kind of experiment: primary screen, percent inhibition; read by cleavage of a fluorogenic dipeptide substrate; higher = more effect of the substance. Also on record: species or system P. falciparum D10 trophozoite lysates; single well.
Sequence of DPAP1 (Q8IIJ9 whole entry, looked up): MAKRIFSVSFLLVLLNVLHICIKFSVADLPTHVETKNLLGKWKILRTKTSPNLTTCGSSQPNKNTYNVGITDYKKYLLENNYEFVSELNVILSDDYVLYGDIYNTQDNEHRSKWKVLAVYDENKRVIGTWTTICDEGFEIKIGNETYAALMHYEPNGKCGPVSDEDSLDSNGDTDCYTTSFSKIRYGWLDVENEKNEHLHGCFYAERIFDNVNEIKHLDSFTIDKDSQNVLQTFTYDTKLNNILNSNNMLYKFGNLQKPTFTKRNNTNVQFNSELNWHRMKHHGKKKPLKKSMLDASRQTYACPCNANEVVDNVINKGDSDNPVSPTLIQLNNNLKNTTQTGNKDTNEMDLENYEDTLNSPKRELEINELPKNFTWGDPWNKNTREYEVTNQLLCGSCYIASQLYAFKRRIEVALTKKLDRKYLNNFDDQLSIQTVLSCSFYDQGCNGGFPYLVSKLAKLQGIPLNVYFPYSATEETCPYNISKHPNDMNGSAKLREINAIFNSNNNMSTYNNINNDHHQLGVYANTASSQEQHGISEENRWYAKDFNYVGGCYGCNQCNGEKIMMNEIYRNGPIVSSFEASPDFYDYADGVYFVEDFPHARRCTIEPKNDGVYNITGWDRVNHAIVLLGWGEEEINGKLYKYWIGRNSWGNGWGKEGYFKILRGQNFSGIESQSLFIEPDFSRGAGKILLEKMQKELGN
As for `Cc1ccc2c(CC(=O)Nc3sc4c(c3C(N)=O)CCCC4)coc2c1`, the “% Inhibition @ 10 uM” value came to 5.7%. As for `COc1cccc(-c2coc3cc4oc(=O)c(CCC(=O)O)c(C)c4cc23)c1`, the “% Inhibition @ 10 uM” value amounted to 3.81%. With `O=C(NCc1cccnc1)c1cc2c(Cl)ccc3c2n1CCO3` the figure was 5.71%; with `COCCNC(=O)C1CCN(c2ncnc3c2nc2n3CCCCC2)CC1`, 0.958%; with `Cc1ccc(C(=O)/C=C/c2cc(Cl)cc3c2OCOC3)c(O)c1`, 8.98%. With `CS(=O)(=O)c1nc(S(=O)(=O)c2ccc(Cl)cc2)c(NCCC2=CCCCC2)s1` the figure was -9.79%; with `CC1CN(Cc2cccc(Cl)c2Cl)CC(C)O1` (centres unmarked), -2.78%.

Take `CS(=O)(=O)CC[C@@H](NC(=O)OCc1ccccc1)C(=O)NCC#N`: the “% Inhibition @ 10 uM” value is listed as 3.1%. In the case of `CCCOc1ccc(-c2nonc2NC(=O)COc2ccc(F)cc2)cc1OCCC` it was -1.47%; in that of `Cc1onc(-c2ccccc2Cl)c1C(=O)Nc1cccc(F)c1`, -7.34%. With `c1ccc2c(c1)CCOC2C1=NCCN1` (centres unmarked) the figure was 0.774%. In the case of `CCCS(=O)(=O)N1CCN(Cc2ccccc2Br)CC1` it was -3.41%; in that of `CC1CCC(NC(=O)C(NC(=O)C2CCC(C)CC2)C(C)C)CC1` (centres unmarked), -4.96%. For the molecule `Nc1nnc(COc2ccccc2Cl)s1`, the “% Inhibition @ 10 uM” value was -1.93%. With `Cn1nc(C(=O)N2CCCC2)c2c1-c1ccccc1S(=O)(=O)C2` the figure was -1.67%; with `Cc1ccc(-c2cnc(NCc3ccc(F)cc3F)n2C)cc1`, 2.31%. With `O=C(Nc1cc(C(F)(F)F)ccc1Cl)c1ccc(-c2ccccc2)cc1` the figure was -1.15%; with `Cn1c(C2=CC(C)(C)NC(C)(C)C2)ccc1C1=CC(C)(C)NC(C)(C)C1`, -5.9%; with `CS(=O)(=O)N(CC(=O)N1CCCCC1)c1ccc(Cl)c(C(F)(F)F)c1`, -3.39%. With `O=C(Nc1nccs1)C1CCCN(c2ncnc3c2nc2n3CCCCC2)C1` (centres unmarked) the figure was -2.21%; with `O=C(c1ccc2c(c1)sc1nc(-c3ccccc3)cn12)N1CCN(Cc2ccccc2)CC1`, 32.5%; with `CCN(CC)c1ccc(C2C3=C(O)CCCC3=NC(C)=C2C(=O)Nc2ccccc2F)cc1` (centres unmarked), -2.64%. `COc1ccc(/C=C/C(=O)NCCNC2=NS(=O)(=O)c3ccccc32)cc1`: the “% Inhibition @ 10 uM” value was found to be 3.72%.

For `CC(C)CCNC(=O)C1CCCCN1S(=O)(=O)c1ccc(F)cc1` (centres unmarked), the “% Inhibition @ 10 uM” value is listed as -4.06%.

Take `Cc1cccc2[nH]cc(CC(NC(=O)c3ccc(-c4ccccc4Cl)cc3)C(=O)NCC#N)c12` (centres unmarked): the “% Inhibition @ 10 uM” value is on record as -6.98%. In the case of `Nc1ccc(Cl)c(NC(=O)c2ccccc2)c1` it was -5.12%; in that of `O=C(O)C1C2C=CC(O2)C1C(=O)Nc1ccc(Oc2ccccc2)cc1` (centres unmarked), -11.2%. In the case of `COc1ccc(OCC(=O)Nc2sc(C)c(C)c2C(N)=O)cc1` it was 2.48%; in that of `CCOC(=O)c1sc(C)c2c1NC(C)(c1ccccc1)NC2=O` (centres unmarked), -5.63%; in that of `COc1ccccc1N1C(=O)/C(=C/c2ccc(O)c(O)c2)C(=O)NC1=S`, -2.42%. With `CCCOc1ccc(C2C3=C(O)CCCC3=NC(C)=C2C(=O)OCC)cc1OC` (centres unmarked) the figure was 14.3%.

As for `CCN(Cc1ccccc1)C(=O)CSc1nc2cccnc2[nH]1`, the “% Inhibition @ 10 uM” value was 3.95%. With `COc1ccc(NC(=O)c2ccc(Br)o2)c(OC)c1` the figure was -0.996%; with `CC1CCN(CCOCCOc2ccc(Br)cc2)CC1`, -19.7%. With `Cc1ccc2c(c1)-c1onc(C(=O)N3CCN(C(=O)c4ccco4)CC3)c1CO2` the figure was -0.825%; with `Nc1c2c(nc3sc4c(c13)CCCC4)CCCCC2`, -4.03%. In the case of `COc1cc(CN2CCCCCC2)cc(Br)c1O` it was -3.72%; in that of `CC1(C)CC(=O)C2=C(C1)OC(N)=C(C#N)C2c1ccc(OCC(=O)Nc2ccccc2)cc1` (centres unmarked), 1.19%. For `CCOc1ccc(NC(=S)Nc2ccc3nccnc3c2)cc1`, the “% Inhibition @ 10 uM” value is -0.267%.

As to `Cc1ccc(S(=O)(=O)N(CC(=O)N2CCc3ccccc3C2)c2ccc(F)cc2)cc1`, the “% Inhibition @ 10 uM” value is recorded as -6.75%. With `O=C(CN1CCOCC1)NC12CC3CC(CC(C3)C1)C2` the figure was 1.9%; with `O=C(NCCCO)/C(=C\c1ccc(Br)cc1)NC(=O)c1ccccc1`, -2.87%; with `Cc1nc(O)c2c(n1)OC(N)=C(C#N)C2c1ccc(F)cc1` (centres unmarked), -2.54%. `O=C(Cn1cnc2c(nnn2-c2ccc(F)cc2)c1=O)NCc1ccco1`: the “% Inhibition @ 10 uM” value is -0.431%. With `C=CCn1c(SCC(=O)c2ccccc2)nc2ccccc2c1=O` the figure was 0.52%.

As to `COc1ccc(CCNC(=O)C2=CCN(S(=O)(=O)c3ccc(F)cc3)CC2)cc1OC`, the “% Inhibition @ 10 uM” value is -1.21%. `CCN(CC)CCS(=O)(=O)CCC(N)=O`: the “% Inhibition @ 10 uM” value was -6.82%.

On to `O=C(Nc1cnn(Cc2ccccc2)c1)NC12CC3CC(CC(C3)C1)C2`, for which the “% Inhibition @ 10 uM” value was determined as 1.25%. Consider `CC(C)(CNC(=O)C1CCCCC1)CNC(=O)C1CCCCC1`, for which the “% Inhibition @ 10 uM” value was -1.36%.

Consider `O=C1NN=CC(c2ccccc2)(c2c[nH]c3ccccc23)N1` (centres unmarked), for which the “% Inhibition @ 10 uM” value was -2.92%.
